In all, about 310,000 compounds went through this assay and about 14,000 (4.5%) showed an effect of 50% or more. The effect is printed as a negative number. Some of the results follow.
The compounds below were run against human ether-à-go-go-related gene (hERG) potassium channel (human, UniProt Q12809) (assay: primary screen, population patch clamp on CHO cells stably expressing hERG).
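Note: peak tail current of the secondary pulse compared with the same well before compound.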

Chain of human ether-à-go-go-related gene (hERG) potassium channel (Q12809 whole entry, looked up): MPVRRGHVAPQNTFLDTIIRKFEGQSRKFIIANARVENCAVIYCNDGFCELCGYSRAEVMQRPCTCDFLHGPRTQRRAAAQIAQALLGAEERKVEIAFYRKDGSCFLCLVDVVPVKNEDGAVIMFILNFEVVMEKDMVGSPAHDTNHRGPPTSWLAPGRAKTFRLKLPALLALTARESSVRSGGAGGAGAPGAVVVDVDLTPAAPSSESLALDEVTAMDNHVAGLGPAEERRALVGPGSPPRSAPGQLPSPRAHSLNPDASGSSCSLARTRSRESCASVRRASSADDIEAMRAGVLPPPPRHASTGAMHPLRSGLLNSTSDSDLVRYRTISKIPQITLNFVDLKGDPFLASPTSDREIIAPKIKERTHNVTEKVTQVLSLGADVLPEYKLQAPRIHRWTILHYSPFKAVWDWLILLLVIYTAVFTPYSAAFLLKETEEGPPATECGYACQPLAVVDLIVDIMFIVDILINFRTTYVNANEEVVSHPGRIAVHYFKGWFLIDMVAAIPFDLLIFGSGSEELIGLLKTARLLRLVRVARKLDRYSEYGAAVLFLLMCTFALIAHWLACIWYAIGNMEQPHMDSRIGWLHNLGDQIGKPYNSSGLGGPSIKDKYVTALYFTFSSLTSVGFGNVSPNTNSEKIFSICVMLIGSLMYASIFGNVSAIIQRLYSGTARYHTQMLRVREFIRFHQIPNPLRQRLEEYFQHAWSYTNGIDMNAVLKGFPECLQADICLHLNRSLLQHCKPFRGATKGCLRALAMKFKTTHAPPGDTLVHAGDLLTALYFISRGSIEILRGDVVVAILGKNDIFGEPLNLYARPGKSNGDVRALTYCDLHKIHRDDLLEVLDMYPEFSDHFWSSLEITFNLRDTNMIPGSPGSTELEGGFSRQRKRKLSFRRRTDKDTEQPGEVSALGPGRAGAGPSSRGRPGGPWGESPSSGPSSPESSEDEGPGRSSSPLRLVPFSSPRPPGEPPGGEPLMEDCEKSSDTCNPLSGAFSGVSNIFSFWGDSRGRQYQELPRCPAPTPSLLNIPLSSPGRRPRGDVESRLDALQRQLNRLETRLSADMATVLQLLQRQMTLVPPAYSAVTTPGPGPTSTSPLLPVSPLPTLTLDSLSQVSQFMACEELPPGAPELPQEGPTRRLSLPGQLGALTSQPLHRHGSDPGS

| Compound | hERG current change (%, negative = inhibition) at 10uM [%] |
| --- | --- |
| CCN1CCN(Cc2ccc(OC)c(OCc3ccccc3)c2)CC1 | -41.9 |
| O=C(c1ccc(S(=O)(=O)c2cccc(Cl)c2)c([N+](=O)[O-])c1)N1CCN(c2ccccn2)CC1 | -15.8 |
| COc1ccc(OC(C)C(=O)N2CCc3ccccc3C2)cc1 (stereo not shown) | -12.7 |
| CC(C)CCNC(=O)c1cc(-c2ccco2)nc2ccccc12 | 6.45 |
| Cc1ccc(C(=O)OCC(=O)c2ccccc2)cc1 | 14.3 |
| CCCC(c1nnnn1C(C)(C)C)N1CCN(c2ccccc2)CC1 (stereo not shown) | -11.7 |
| COc1ccc2c(c1)C(C)=CC(C)(C)N2C(=O)C(C)N1C(=O)c2ccccc2C1=O (stereo not shown) | -31.6 |
| COCCCNC(=O)C(=O)NC1CCCCC1C (stereo not shown) | 22.8 |
| O=C(O)c1ccc(S(=O)(=O)c2ccc3c(c2)C(=O)N(c2ccccc2[N+](=O)[O-])C3=O)cc1 | 17.6 |
| CCCc1cc(C(=O)Nc2cccc3ccccc23)n(C)n1 | 0.334 |
| O=C(Nc1ccccc1Oc1ccccc1)c1cnccn1 | -1.09 |
| Cc1ccc(Cn2ccc(NC(=O)c3cc(-c4ccc(Cl)cc4)on3)n2)cc1 | 17.3 |
| CCCCCn1nc(C)c(/C=N\NC(=O)c2cc(C)oc2C)c1C | -65.5 |
| CCC(CC)n1[nH]c(=O)cc1N | 7.44 |
| Cc1ccc(S(=O)(=O)NCCC(=O)NCCSc2ccc(Br)cc2)cc1 | -8.17 |
| Cc1ccc(C(=O)Nc2cc(C(F)(F)F)ccc2-n2cncn2)o1 | -9.88 |
| CSc1nnc(-c2ccccc2)n1C | 5.22 |
| COc1cc(C(=O)NC(C)c2cc(C)ccc2C)ccc1OCC(=O)N1CCOCC1 (stereo not shown) | -21.6 |
| O=C(COc1ccc2c3c(c(=O)oc2c1)CCCC3)NCCCN1CCOCC1 | -5.65 |
| COc1ccccc1NC(=O)Cn1c(CCC(=O)O)ccc1-c1ccccc1 | 20.6 |
| CCN(C(=S)NC(=O)Cc1ccc(OC)cc1)c1ccccc1 | 0.155 |
| CC1CCCC(NC(=O)c2cccc(N3CCCC3=O)c2)C1C (stereo not shown) | -13.5 |

| Compound | hERG current change (%, negative = inhibition) at 10uM [%] |
| --- | --- |
| NC1=NC(=O)/C(=C\c2cccs2)S1 | 8.6 |
| COc1ccccc1NC(=O)Cn1cnc2c1c(=O)n(C)c(=O)n2C | 17.9 |
| O=C(/C=C/c1cccc(F)c1)N1CCN(c2ccccn2)CC1 | -118 |
| COc1nc(N(C)S(=O)(=O)c2ccc(C)cc2)nc(C)c1Br | 18.8 |
| O=C(NCCN1CCCCC1)Nc1cccc(F)c1 | -3.3 |
| CCOc1ccc(C(=O)NCC(=O)OCc2ccc(F)cc2Cl)cc1 | -5.03 |
| CCCCn1c(=O)c(CC(C)=O)nc2ccccc21 | 0.233 |
| CN(Cc1ccccc1)C(=O)COC(=O)C1CCN(S(=O)(=O)c2cccs2)CC1 | -53.4 |
| CCCC(c1nnnn1Cc1ccc(F)cc1)N1CCN(CC)CC1 (stereo not shown) | -53 |
| Cc1ccccc1Nc1nc(-c2sc(NC(=O)c3ccc([N+](=O)[O-])cc3)nc2C)cs1 | 24.4 |
| CCCCOC(=O)Nc1cccc(Cl)c1C | -15.6 |
| O=C(Nc1cccc(F)c1)NC1CCN(Cc2ccccc2)CC1 | -56.4 |
| CCOC(=O)Cc1csc(NC(=O)c2ccc3ncsc3c2)n1 | -1.68 |
| COc1ccc(CCN(Cc2ccc(C(C)C)cc2)S(=O)(=O)c2ccc(S(=O)(=O)N(C)C)cc2)cc1OC | -11.1 |
| COC(=O)NC(NC(=S)Nc1ccccc1OC)C(Cl)(Cl)Cl (stereo not shown) | 4.28 |
| O=C(NNC(=O)C1CCCC1)c1cc([N+](=O)[O-])cc([N+](=O)[O-])c1 | 18.1 |
| C[N+]1(CC(=O)OCCCC2CCCCC2)CCCC1.[I-] | -8.31 |
| COc1ccc(C(O)(CC(C)C)C(CN2CCOCC2)c2ccccc2)cc1.Cl (stereo not shown) | -17.7 |
| COc1ccc(CC(=O)N(Cc2ccccc2)C(C)C)cc1 | -0.0847 |
| Cc1ccc(OCC(=O)Nc2ccc(Cl)cc2)c(-n2nc3ccccc3n2)c1 | 17.2 |
| CCN1CCn2c3c(c4cc(C)ccc42)CCCC31 (stereo not shown) | -54.2 |
| O=c1/c(=C/c2ccccn2)sc2n1CN(c1ccccc1)CN=2 | -1.38 |

| Compound | hERG current change (%, negative = inhibition) at 10uM [%] |
| --- | --- |
| Cn1c(-c2ccc3c(c2)OCO3)cnc1NCc1cccc(O)c1.O=C(O)C(=O)O | -23.1 |
| CC(C)c1cccc(C(C)C)c1NC(=O)c1ccc(OCC(=O)NCc2ccccc2)cc1 | -6.29 |
| O=C(COC(=O)c1ccco1)NC1CCCCC1 | 16.6 |
| COc1ccc(CNC(=O)C2CCN(S(=O)(=O)c3cccnc3)CC2)cc1 | 12.9 |
| CC1CN(C(=O)COC(=O)c2ccc(Cl)c(N)c2)CC(C)O1 (stereo not shown) | -3.05 |
| NC(=O)c1c(N)sc2c1CCCC2 | -12.3 |
| O=C(O)CCC(=O)N1CCc2cc(S(=O)(=O)Nc3ccc4c(c3)OCCO4)ccc21 | 9.35 |
| CCOC(=O)C1CCCN(c2nc3ccccc3nc2C(C#N)C(=O)OCCOC)C1 (stereo not shown) | -66 |
| CN(C)c1cccc(C(=O)Nc2nnc(Cc3ccccc3)s2)c1 | 0.344 |
| CC(=O)c1sc(N/N=C\c2cccc(Br)c2)nc1C | 13.2 |
| O=C(COc1nncc2ccccc12)Nc1ccc(F)c(F)c1 | 31 |
| CCOC(=O)c1sc(/N=C/c2ccc(O)cc2O)cc1C | 39.8 |
| COc1ccc(Br)cc1/C=N/NC(=O)CNC(=O)/C=C/c1ccccc1 | 14.1 |
| CCn1c(O)c(C(c2ccccn2)c2c(O)n(CC)c(=S)[nH]c2=O)c(=O)[nH]c1=S | 13.1 |
| COC(=O)c1cn(C(=O)c2ccc(C)cc2C)c2ccccc12 | 12 |
| CCOC(=O)Cc1cc(=O)n2[nH]c(C)c(C#N)c2n1 | 7.91 |
| Cc1cc(C)cc(NC(=O)Oc2ccccc2N2CCCCC2)c1 | 11.2 |
| CCc1nc2sc3ccccc3c(=O)c2c(=O)n1CCOC | -16.8 |
| COc1ccccc1N1C(=O)C2C(C(=O)c3ccccc3)=NN(c3ccc(Br)cc3)C2C1=O (stereo not shown) | 7.78 |
| Cn1ccc(NC(=O)c2ccc([N+](=O)[O-])cc2)n1 | 2.12 |
| CCCCN(CC)C(=O)Cn1ncc2c1-c1cc(C)ccc1OC2 | -19.7 |
| COc1ccccc1CNC(=O)c1ccc2c(c1)OCO2 | 1.64 |

| Compound | hERG current change (%, negative = inhibition) at 10uM [%] |
| --- | --- |
| Cc1ccc(-n2cc(C(=O)c3ccccc3O)cn2)cc1 | 19.8 |
| Cc1ccc(C(=O)NCCc2ccc(S(N)(=O)=O)cc2)cc1[N+](=O)[O-] | -3.81 |
| CC(=C\c1ccco1)/C=C1/SC(=S)N(CC(=O)O)C1=O | 11.9 |
| Cc1cc(C)c(Nc2ncccc2C(=O)O)c(C)c1 | 12.6 |
| CCS(=O)(=O)N1CCC(C(=O)NCCN2CCN(Cc3ccccc3)CC2)CC1 | 2.07 |
| COc1cc(C(=O)NNC(=S)NC(=O)c2ccc3c(c2)OCO3)cc(OC)c1OC | 4.12 |
| Cc1ccc(NC(=O)CSc2ccc3nnc(CCNC(=O)c4ccccc4)n3n2)c(C)c1 | -18 |
| CC1CCCC(C)N1C(=O)COC(=O)C(Cc1ccccc1)NC(=O)c1cccs1 (stereo not shown) | 0.924 |
| CCOc1ccc(C(=O)Nc2ccc3nc(N4CCN(CC)CC4)cc(C)c3c2)cc1 | -23 |
| OCC1(Cc2ccc(Cl)cc2)CCN(Cc2ccc3nsnc3c2)CC1 | -61.5 |
| CC1OC(OC2C(Oc3c(-c4ccc(O)cc4)oc4cc(O)cc(O)c4c3=O)OC(COC3O[C@@H](C)[C@H](O)[C@@H](O)C3O)C(O)C2O)C(O)C(O)C1O (stereo partly shown) | 16.8 |
| Cc1nn2c(-c3ccccc3)c(-c3ccccc3)nc2[nH]c1=O | 1.36 |
| CCOC(=O)c1c(C)nc2sc3c(=O)n(-c4ccc(C)cc4)cnc3c2c1-c1ccc(OC)cc1 | 13.2 |
| COc1ccc2oc(C)c(C(=O)c3ccc([N+](=O)[O-])cc3)c2c1 | -12.2 |
| CCN(CC)c1ccc(/C=N/N2CCN(c3ccccn3)CC2)cc1 | 15.1 |
| CCN(CC)C(=O)Cn1cc(C(=O)C(=O)NCCc2ccccc2)c2ccccc21 | 0.8 |
| Cc1cc2cc(CN(CCCO)S(=O)(=O)c3cccc4nsnc34)c(=O)[nH]c2cc1C | 0.493 |
| COc1ccc(NC(=O)c2ccc(C)cc2)c(OC)c1 | -6.01 |
| CN1CCN(C(=O)CSc2nc(-c3cccs3)ccc2C#N)CC1 | -4.44 |
| Cc1ccc(-n2nc(C)cc2NC(=O)COc2cc(C)cc3oc(=O)c4c(c23)CCC4)cc1 | 7.84 |
| O=C(NNS(=O)(=O)c1ccccc1)c1cccc([N+](=O)[O-])c1 | -1.72 |
| COCc1cc(C)n(CC(=O)NC(C)c2ccccc2)c(=O)c1C#N (stereo not shown) | 8.02 |
